Several values for one entry are separate records, joined by “and”; a condition that tells them apart may be missing. Equal values may be shown once.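 Five compound concentrations were applied to cells in 96-well plates for 48 hours; endpoints were derived by simple linear interpolation of the resulting dose-response curve. The concentration for 50% growth inhibition is given as GI50. The concentration for full growth arrest is given as TGI.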

The results in this text go back to PubChem BioAssay (NCI).

The assay deals with NCI-H322M lung. The assay is described as follows: growth of human tumour cells (NCI), 48 h.

For `CCCCN(CC)CCCCCCCCCCN1CCCc2cc(OC)ccc21`, the GI50 is 8.9 µM and the TGI worked out at 37.7 µM.

For the compound `CCCCCCCCCC/C=C/C=O`, the TGI is more than 100 µM.

`COC(=O)c1nc(C(=O)OC)c2c([nH]c3ccccc32)c1C(=O)OC`: the TGI was more than 100 µM.

On to `O=C(O)c1cn(C2CC2)c2cc(N3CCN(C(=O)Nc4nc(-c5ccc(Br)cc5)cs4)CC3)c(F)cc2c1=O`, for which the GI50 was 2.92 µM and the TGI is more than 100 µM.

`CCN(CC)C(=S)N/N=C/c1cc(OC)ccc1O` yielded a TGI of more than 100 µM.

`CCc1ccc(Nc2cc(=O)n(C)c(SCc3ccccc3)n2)cc1` came in with a TGI of more than 100 µM.

Take `CN(CSc1ccc(Cl)cc1)c1ccc(CSc2ccc(Cl)cc2)cc1`: the GI50 is 7.16 µM and the TGI is 73.1 µM.

`O=C(Oc1c(Br)cc(Br)cc1C(=O)Oc1ccccc1)C(=O)Oc1c(Br)cc(Br)cc1C(=O)Oc1ccccc1` yielded a TGI of more than 100 µM.

Compound `Cc1cccc(N=C/C=C(\Cl)c2ccc3ccccc3c2)c1` came in with a TGI of 50.3 µM.

`C#CCn1c(=O)c2cccnc2n(CC#C)c1=O`: the TGI is more than 100 µM.

Turning to `O=C(O)CCC1CCc2cccc(OCC(=O)O)c2C1=O` (configuration not stated), the TGI is more than 100 µM.

In turn, `COC(=O)[C@H](COC(C)(C)C)NC(=O)N[C@H](C)c1ccccc1` gave a TGI of more than 100 µM.

Turning to `N#Cc1c2ccccc2c2nnc3ccc(C(F)(F)F)cc3n12`, the GI50 is 40.9 µM and the TGI is more than 100 µM.

With `C(=N\NC1=NCCN1)/c1cccc2cc3ccncc3nc12`, the TGI turned out to be 16.7 µM.

`COc1ccccc1NC(=O)C(=O)Cc1cnc2ccccc2n1` gave a TGI of more than 100 µM.

In turn, `COc1ccc(-n2c(Cn3nnc(-c4cccnc4)n3)nn(C3OC(COC(=O)c4ccccc4)C(OC(=O)c4ccccc4)C3OC(=O)c3ccccc3)c2=S)cc1` (configuration not stated) displayed a TGI of more than 100 µM.

Consider `O=C(/C=C/c1nnc2n(Cc3ccccc3)c(=O)c3c4c(sc3n12)CCCC4)c1ccccc1`, for which the GI50 is more than 100 µM and the TGI is more than 100 µM.

Take `Cc1cc(C)nc(NCCC(O)(P(=O)(O)O)P(=O)(O)O)n1`: the TGI was more than 100 µM.

For `CN(C)CC1CCCCCCCCCCCCC(CN(C)C)C1=O` (configuration not stated), the TGI was found to be 28.6 µM.

The compound `CCOC(=O)C1=CNC(C(=O)OCC)C1c1cccn1-c1ccccc1` (configuration not stated) had a TGI of more than 100 µM.

Turning to `COc1cc(/C=C/C(=O)c2ccc(F)cc2)ccc1OCCCCCOc1cc2c(cc1OC)C(=O)N1CCCC1C=N2` (configuration not stated), the GI50 was 0.0808 µM and the TGI amounted to 1.28 µM.

As for `O=C1/C(=C\c2ccccc2)CN(C(=O)c2ccccc2)C/C1=C\c1ccccc1`, the GI50 is 16.1 µM and the TGI was 35.9 µM.

For the compound `FC(F)(F)c1cc(-c2ncn(/C=C\c3nnco3)n2)cc(C(F)(F)F)c1`, the GI50 was 0.0834 µM and the TGI was more than 100 µM.

Turning to `O=C1CCN2C(=N1)Sc1ccccc12`, the TGI is more than 100 µM.

As to `Cn1c2cc([N+](=O)[O-])ccc2c(=O)c2c(O)cc3c(c21)C=CC(C)(C)O3`, the TGI is more than 100 µM.

Take `Oc1ccc(Cc2ccc(O)c(C3CC(c4ccc(Cl)cc4)=NN3)c2)cc1C1CC(c2ccc(Cl)cc2)=NN1` (configuration not stated): the GI50 was 3.56 µM and the TGI was more than 100 µM.

The compound `C=CCC12CCC(=O)[C@@]1(C)CC=C(O)C2=O` (some centres not stated) returned a TGI of more than 100 µM.

The compound `CC(=O)Oc1ccc(Nn2c3ccccc3c3ccccc32)c(C)c1` had a TGI of more than 100 µM.

For the compound `Cc1c2ccccc2c(C2C3C(=O)N(c4cccc5ccccc45)C(=O)C3ON2Cc2ccc(CC(N)=O)cc2)c2ccccc12` (configuration not stated), the TGI is more than 50 µM.

`CN1C(=O)CN2C(Cl)(Cl)C2(c2ccccc2)c2cc(Cl)ccc21` (configuration not stated) yielded a TGI of more than 100 µM.

Take `CN1C(C)(C)CC(=O)C(Br)C1(C)C` (configuration not stated): the TGI was more than 100 µM.

The compound `OCC1OC(n2cnc3c(SCc4ccccc4)ncnc32)C(O)C1O` (configuration not stated) registered a TGI of more than 100 µM.

Take `CCCOc1ccc(/C=N/Nc2cc(C)nc3ccc(Cl)cc23)cc1`: the GI50 is 1.69 µM and the TGI was 3.06 µM.

In turn, `NC(CO)c1ccc(OCc2ccccc2)cc1` (configuration not stated) came in with a TGI of more than 100 µM.

The compound `O=c1c(O)cc2c(O)oc3c(=O)c(O)c(O)c4c(O)oc1c2c43` came in with a TGI of more than 100 µM.

`O=[N+]([O-])/C=C/c1cc2ccc3ccccc3c2[nH]1` yielded a TGI of 8.97 µM.

As to `O=C(Cc1ccc(Nc2ccnc(C(F)(F)F)c2)cc1)N/N=C/c1ccccc1O`, the GI50 is 2.26 µM and the TGI was more than 80.4 µM.

As to `Cc1ccc(C(=O)N2CCCCC2)cc1N=NN(C)C`, the TGI is more than 100 µM.

Regarding `CC(=O)OCC1OC([Se-])C(OC(C)=O)C(OC(C)=O)C1OC(C)=O.N#CCC[PH+](CCC#N)CCC#N.[Au+]` (configuration not stated), the GI50 is 9.47 µM and the TGI worked out at 52.7 µM.

`CC(=O)Oc1c(Br)ccc2cc(C(Br)Br)c(C(=O)c3ccccc3)nc12`: the TGI amounted to 37.2 µM.

In the case of `CC(C)OCc1cc(CN2CCN(c3cccc(Cl)c3)CC2)c(O)c2ncccc12`, the GI50 is 0.465 µM and the TGI was 15 µM.

In turn, `CN(C)CCN(C)C(=O)C1CCCN1C(=O)OCc1ccccc1` (configuration not stated) gave a TGI of more than 100 µM.

Compound `CC1CCC2CC1NC(=O)CCOCCC(=O)NC2(C)C` (configuration not stated) registered a TGI of more than 100 µM.

In the case of `CC(C)(Oc1ccc2c(=O)cc(-c3ccccc3)oc2c1)C(=O)N1CCN(c2ccccc2)CC1`, the TGI was more than 10 µM.

On to `CCCCN(CCCC)CC(C(=O)Nc1ccc([N+](=O)[O-])cc1[N+](=O)[O-])/C(C)=N\NC(=O)C[N+](C)(C)C` (configuration not stated), for which the TGI was more than 100 µM.

For `CC[C@@H]1CC[C@@H]2[C@H](CC[C@]3(C)[C@@H](OC(C)=O)CC[C@@H]23)[C@H]1C(=O)OC`, the TGI was more than 100 µM.

With `CCCCCCCCCCCCCCCC(=O)Nc1ccn(C2CCC(COP(=O)(O)OCC3OC(n4cc(F)c(=O)[nH]c4=O)CC3OC(C)=O)O2)c(=O)n1` (configuration not stated), the TGI is more than 100 µM.

`O=C1CCCCC1C(O)(C(F)(F)F)C(F)(F)Cl` (configuration not stated) yielded a TGI of more than 10 µM.

`O=C1Nc2ccccc2/C1=C\c1c(-c2ccccc2)nc2n1CCS2` displayed a TGI of 58.9 µM.

Turning to `O=C(c1ccccc1)C(Nc1ccc2ccccc2c1)c1ccccc1` (configuration not stated), the TGI is more than 100 µM.

In turn, `C=CC(=O)NCNC(=O)C=C` showed a TGI of more than 100 µM.

For the compound `CO[C@H]1O[C@@H]2OC3(C)CCC4[C@H](C)CCC([C@H]1C)[C@]42OO3` (some centres not stated), the TGI is more than 100 µM.

`Cc1cnc2c(c1)C(=O)N(c1ccc([N+](=O)[O-])cc1)S2(=O)=O`: the TGI was more than 100 µM.

For `NC(=N\N=C/c1ccc(Cl)cc1Cl)/C(N)=N\N=C/c1ccc(Cl)cc1Cl`, the GI50 is 6.24 µM and the TGI is more than 90.6 µM.

Turning to `CC(=O)O[C@H]1CC[C@@]2(C)C(=CC[C@@H]3[C@@H]2CC[C@](C)(c2nnc(C)o2)[C@H]3CC#N)C1`, the TGI is more than 100 µM.

On to `CCC(C)CC(C)C(=O)c1c(O)ccn(O)c1=O` (configuration not stated), for which the GI50 is 2.25 µM and the TGI was more than 100 µM.

Regarding `CC(C)(CN1CCCCC1)C(=O)CC(SCCN)c1ccc(Cl)cc1` (configuration not stated), the TGI turned out to be 6.42 µM.

In turn, `O=C1NC(=O)C2C1C1C=C3c4ccccc4N(c4ccccc4)C32[C@H]2C(=O)NC(=O)[C@@H]12` (some centres not stated) showed a TGI of more than 100 µM.

`C/C(=N\O)C1CC2C=C(C#N)C1N(Cc1ccccc1)C2` (configuration not stated) registered a TGI of more than 100 µM.

On to `CC(Cc1cccc2c1Nc1ccccc1S2)N(C)CCO` (configuration not stated), for which the TGI is more than 100 µM.

In turn, `N#Cc1ccc(C(C2C(=O)NC(=O)NC2=O)C2C(=O)NC(=O)NC2=O)cc1` gave a TGI of more than 100 µM.

Turning to `CS(=N)(=O)CCC(N)P(=O)(O)O` (configuration not stated), the TGI was more than 100 µM.

In the case of `COc1ccc2[nH]c3c4c(cc(-c5ccccc5)c3c2c1)C(=O)N(c1ccccc1)C4=O`, the TGI was more than 100 µM.

Compound `N#Cc1c(-c2ccccc2)cc(-c2cccs2)c(C#N)c1N` came in with a TGI of more than 100 µM.

Take `O=c1nc2c(c(-c3ccc(F)cc3)[nH]1)COC/C2=C\c1ccc(F)cc1`: the TGI is more than 100 µM.

With `Cn1nc(-c2ccccc2)c2c(-c3ccccc3)c3cc(Cl)ccc3nc21`, the TGI was more than 100 µM.

`COCC12CCC(OC)C34C5CC6(O)C(OC)C=C(C5C6OC(=O)c5ccccc5)C(C(OC)C13)C4N(C)C2` (configuration not stated): the TGI is more than 100 µM.

In the case of `N#CCC1C2CC3C(C2=O)C13` (configuration not stated), the TGI was more than 100 µM.

Turning to `C=C(CN1CCN(c2ccccc2C(F)(F)F)CC1)c1ccc(C(=O)Nc2ccccc2N)cc1`, the GI50 is 11.4 µM and the TGI is more than 89.1 µM.

Compound `Fc1cccc(C2SCc3nc4cc5ccccc5cc4n32)c1` (configuration not stated) displayed a TGI of more than 100 µM.

Consider `CC(C)CC(NC=O)C(=O)NC(Cc1ccccc1)NC(=O)CNC(=O)C(C)NC(=O)C(N)Cc1ccc(O)cc1` (configuration not stated), for which the TGI is more than 100 µM.

In the case of `CCC(C)(C)[C@H](NC(=O)[C@H]1CCCCN1C)C(=O)N(C)[C@H](C[C@@H](OC(C)=O)c1nc(C(=O)N[C@@H](Cc2ccccc2)C[C@H](C)C(=O)O)cs1)C(C)C`, the GI50 was less than 0.00167 µM and the TGI is more than 16.7 µM.

Take `Cc1cc(=O)oc2cc(OC(=O)Nc3ccccc3)ccc12`: the TGI is more than 100 µM.

Take `C/C1=C/C[C@@H](/C(C)=C/c2csc(C)n2)OC(=O)C[C@H](O)C(C)(C)C(=O)[C@H](C)[C@@H](O)[C@@H](C)CCC1`: the TGI amounted to 0.186 µM.

`O=C1CCSc2nc(-c3ccc4c(c3)OCO4)nn21` gave a TGI of more than 10 µM.

For `Cc1ccc(NC(=O)/C(=N\NC(N)=S)C(C#N)c2ccccc2C)cc1C` (configuration not stated), the TGI was more than 100 µM.

The compound `COC(=O)[C@@H](OC(C)=O)[C@@H](OC(C)=O)c1nnc2ccc(Cl)nn12` returned a TGI of more than 100 µM.

Consider `COc1cc2c(cc1OCCCCn1c(-c3cccs3)nc3ccccc31)N=C[C@@H]1CCCN1C2=O`, for which the GI50 is 2.7 µM and the TGI was determined as 8.43 µM.

In turn, `CCCn1c(=O)c2nn3c(=O)n(CCC)c(=O)c3nn2c1=O` showed a TGI of more than 100 µM.

For the compound `O=c1[nH]c(F)nc2c1ncn2C1OC(CO)C(O)C1O` (configuration not stated), the GI50 was more than 100 µM and the TGI was more than 100 µM.

Turning to `CCOC(=O)/C(=C/c1ccccc1Br)P(=O)(OCC)OCC`, the TGI is 13.4 µM.

`O=C(Nc1ccccc1)c1cccc([N+](=O)[O-])c1` registered a TGI of more than 100 µM.

Take `CCOc1cc(/C=C/C(=O)C(C(=O)/C=C/c2ccc(OC(=O)CNc3nnc(C)s3)c(OCC)c2)C(=O)CNc2nnc(C)s2)ccc1OC(=O)CNc1nnc(C)s1`: the GI50 is 4.08 µM and the TGI stood at 14.8 µM.

For the compound `O=C1C=CC(=O)N1c1ccc(I)cc1`, the TGI came out at 36.9 µM.

On to `COC(=O)CC(CNC(=O)OCc1ccccc1)OCc1ccc(OC)cc1` (configuration not stated), for which the TGI was more than 100 µM.

For the compound `C=C1C(=O)OC2CC1C(OC(C)=O)C/C(C)=C/CC/C(C)=C\CCC2(C)O` (configuration not stated), the TGI is 31 µM and 32.2 µM.

Take `COc1ccc(NS(=O)c2c(C)cc(C)cc2C)cc1` (configuration not stated): the TGI was more than 100 µM.
